Data as given in the supplement of paper PMC4967469.

Assays:
Experiment in all cases: Viability of human cancer cell lines after 72 h of drug (GDSC screen)
ABT-263 = compound: CC1(C)CCC(c2ccc(Cl)cc2)=C(CN2CCN(c3ccc(C(=O)NS(=O)(=O)c4ccc(N[C@H](CCN5CCOCC5)CSc5ccccc5)c(S(=O)(=O)C(F)(F)F)c4)cc3)CC2)C1 [ABT-263]; conditions: top dose 2 µM; top dose inferred
Description: (§1)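 Human cancer cell lines in 384-well plates, medium with 10% serum, drug for 72 h over a 256-fold dose range (nine 2-fold or five 4-fold steps up to the top dose). Adherent lines were fixed and stained with the nucleic acid dye Syto60, suspension lines read with resazurin; signal relative to control wells, capped at 0 and 100%. One two-parameter sigmoid per drug and line, fitted in a mixed model over all curves with the slope shared within a line.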

piperlongumine = compound: COc1cc(/C=C/C(=O)N2CCC=CC2=O)cc(OC)c1OC [piperlongumine]; conditions: top dose 10 µM
Description: as §1

GW 441756 = compound: Cn1cc(/C=C2\C(=O)Nc3cccnc32)c2ccccc21 [GW 441756]; conditions: top dose 2 µM; top dose inferred
Description: as §1

PIK-93 = compound: CC(=O)Nc1nc(C)c(-c2ccc(Cl)c(S(=O)(=O)NCCO)c2)s1 [PIK-93]; conditions: top dose 20 µM
Description: as §1

Cell Line	AUC (ABT-263)	IC50 (ABT-263) [µM]	AUC (piperlongumine)	IC50 (piperlongumine) [µM]	AUC (GW 441756)	IC50 (GW 441756) [µM]	AUC (PIK-93)	IC50 (PIK-93) [µM]
KMH-2 (thyroid, adherent)	0.99	> 2	0.793	4.01	0.974	> 2	0.96	> 20
KMRC-1 (kidney, adherent)	0.987	> 2	0.797	5.04	0.986	> 2	0.899	> 20
KMRC-20 (kidney, adherent)	0.944	> 2	0.824	6.07	0.989	> 2	0.984	> 20
KMS-11 (myeloma, suspension)	0.976	> 2	0.733	2.55	0.991	> 2	0.643	2.91
KON (head and neck, adherent)	0.917	> 2	0.705	2.33	0.902	> 2	0.986	> 20
KP-2 (pancreas, adherent)	0.727	0.586	0.783	4.57	0.986	> 2	0.909	> 20
KP-3 (pancreas, adherent)	0.969	> 2	0.785	5.16	0.924	> 2	0.86	> 20
KU-19-19 (bladder, adherent)	0.984	> 2	0.609	1.25	0.968	> 2	0.987	> 20
KYAE-1 (oesophagus, suspension)	0.821	1.32	0.786	4.82	0.985	> 2	0.512	1.35
KYM-1 (rhabdomyosarcoma, adherent)	0.987	> 2	0.685	1.88	0.944	> 2	0.951	> 20
KYSE-50 (oesophagus, adherent)	0.983	> 2	0.957	> 10	0.971	> 2	0.893	> 20
KYSE-150 (oesophagus, adherent)	0.987	> 2	0.854	7.39	0.989	> 2	0.89	> 20
KYSE-220 (oesophagus, adherent)	0.985	> 2	0.85	8.23	0.976	> 2	0.869	> 20
KYSE-410 (oesophagus, adherent)	0.927	> 2	0.749	3.42	0.948	> 2	0.894	> 20
KYSE-450 (oesophagus, adherent)	0.973	> 2	0.861	7.69	0.959	> 2	0.804	9.32
KYSE-510 (oesophagus, adherent)	0.988	> 2	0.839	5.24	0.964	> 2	0.895	17.1
KYSE-520 (oesophagus, adherent)	0.95	> 2	0.774	5.34	0.945	> 2	0.87	> 20
LC-1-sq (lung squamous cell carcinoma, adherent)	0.873	> 2	0.967	> 10	0.943	> 2	0.898	> 20
LCLC-97TM1 (large cell lung carcinoma, adherent)	0.983	> 2	0.802	5.49	0.983	> 2	0.658	3.6
LCLC-103H (large cell lung carcinoma, adherent)	0.982	> 2	0.853	6.73	0.985	> 2	0.772	7

Cell Line	AUC (ABT-263)	IC50 (ABT-263) [µM]	AUC (piperlongumine)	IC50 (piperlongumine) [µM]	AUC (GW 441756)	IC50 (GW 441756) [µM]	AUC (PIK-93)	IC50 (PIK-93) [µM]
LK-2 (lung squamous cell carcinoma, adherent)	0.923	> 2	0.929	> 10	0.96	> 2	0.871	17
LN-18 (glioma, adherent)	0.951	> 2	0.879	6.96	0.949	> 2	0.969	> 20
LN-405 (glioma, adherent)	0.983	> 2	0.818	7.62	0.982	> 2	0.86	> 20
LNZTA3WT4 (glioma, adherent)	0.989	> 2	0.641	1.52	0.931	> 2	0.877	19.4
LOU-NH91 (lung squamous cell carcinoma, adherent)	0.861	1.94	0.786	4.72	0.944	> 2	0.951	> 20
LS-180 (large intestine, adherent)	0.936	> 2	0.892	> 10	0.886	> 2	0.898	> 20
LU-135 (small cell lung carcinoma, suspension)	0.442	0.0895	0.813	4.28	0.982	> 2	0.739	5.2
LoVo (large intestine, adherent)	0.93	> 2	0.815	5.57	0.975	> 2	0.921	> 20
M059J (glioma, adherent)	0.927	> 2	0.759	3.77	0.985	> 2	0.795	10.2
MC-IXC (neuroblastoma, adherent)	0.965	> 2	0.85	4.71	0.994	> 2	0.82	7.78
MDA-MB-231 (breast, adherent)	0.98	> 2	0.664	1.84	0.983	> 2	0.986	> 20
MDA-MB-330 (breast, adherent)	0.409	0.0678	0.775	4.53	0.932	> 2	0.843	17.3
MDA-MB-361 (breast, adherent)	0.981	> 2	0.744	3.11	0.976	> 2	0.575	2
MDA-MB-415 (breast, adherent)	0.833	1.95	0.829	9.32	0.909	> 2	0.897	> 20
MDA-MB-453 (breast, adherent)	0.981	> 2	0.787	4.89	0.963	> 2	0.606	2.52
MDA-MB-468 (breast, adherent)	0.92	> 2	0.715	2.46	0.93	> 2	0.85	14.2
ME-180 (cervix, adherent)	0.947	> 2	0.679	2.03	0.939	> 2	0.747	6.65
MEL-JUSO (melanoma, adherent)	0.977	> 2	0.75	3.61	0.944	> 2	0.715	5.48
MES-SA (uterus, adherent)	0.992	> 2	0.823	4.79	0.963	> 2	0.992	> 20
MFE-280 (endometrium, adherent)	0.886	> 2	0.698	2.64	0.977	> 2	0.751	8.22

Cell Line	AUC (ABT-263)	IC50 (ABT-263) [µM]	AUC (piperlongumine)	IC50 (piperlongumine) [µM]	AUC (GW 441756)	IC50 (GW 441756) [µM]	AUC (PIK-93)	IC50 (PIK-93) [µM]
MFE-296 (endometrium, adherent)	0.983	> 2	0.709	2.56	0.959	> 2	0.893	> 20
MG-63 (osteosarcoma, adherent)	0.984	> 2	0.707	2.66	0.972	> 2	0.98	> 20
MHH-ES-1 (Ewing sarcoma, adherent)	0.952	> 2	0.722	2.64	0.805	0.99	0.316	0.385
MOG-G-CCM (glioma, adherent)	0.842	1.76	0.758	4	0.982	> 2	0.778	9.49
MOG-G-UVW (glioma, adherent)	0.959	> 2	0.554	0.872	0.969	> 2	0.858	15.7
MS751 (cervix, adherent)	0.989	> 2	0.752	3.09	0.981	> 2	0.956	> 20
NCC021 (kidney, adherent)	0.819	1.38	0.817	6.78	0.967	> 2	0.766	8.57
NCI-H28 (mesothelioma, adherent)	0.977	> 2	0.716	3.15	0.98	> 2	0.919	> 20
NCI-H358 (lung adenocarcinoma, adherent)	0.953	> 2	0.833	7.48	0.979	> 2	0.808	11.8
NCI-H460 (large cell lung carcinoma, adherent)	0.99	> 2	0.939	> 10	0.933	> 2	0.923	> 20
NCI-H520 (lung squamous cell carcinoma, adherent)	0.987	> 2	0.963	> 10	0.971	> 2	0.521	1.43
NCI-H596 (lung adenocarcinoma, adherent)	0.88	> 2	0.754	4.27	0.97	> 2	0.642	3.47
NCI-H630 (large intestine, adherent)	0.915	> 2	0.916	> 10	0.986	> 2	0.95	> 20
NCI-H650 (lung adenocarcinoma, adherent)	0.986	> 2	0.763	3.95	0.983	> 2	0.874	> 20
NCI-H661 (large cell lung carcinoma, adherent)	0.873	> 2	0.802	6.16	0.924	> 2	0.808	13.1
NCI-H727 (lung carcinoid, adherent)	0.871	> 2	0.847	> 10	0.974	> 2	0.942	> 20
NCI-H810 (large cell lung carcinoma, adherent)	0.976	> 2	0.716	2.47	0.988	> 2	0.851	14.3
NCI-H838 (lung adenocarcinoma, adherent)	0.985	> 2	0.807	5.37	0.87	2	0.914	> 20
NCI-H841 (small cell lung carcinoma, adherent)	0.957	> 2	0.863	8.7	0.96	> 2	0.85	15.3
NCI-H1048 (small cell lung carcinoma, adherent)	0.729	0.516	0.842	6.01	0.987	> 2	0.224	0.219

The IC50 comes from the fitted curve, where viability falls to half of the control; where the fit passes the top or lowest dose, that dose stands as a limit. For AUC the same curve is integrated over the 256-fold range of doses and scaled to a fraction; it is 1 without any effect and falls as sensitivity rises. For part of these data: Where the top dose is marked as inferred, it was derived from the fitted curves, not read from the paper.
